Tested on: C. difficile VPI10463
Test: MIC in culture medium containing 20% fecal extracts against C. difficile VPI10463

For `CC(C)N=c1cc2n(-c3ccc(Cl)cc3)c3ccccc3nc-2cc1Nc1ccc(Cl)cc1` [CFM, 3-(p-chloroanilino)-10-(p-chlorophenyl)-2,10-dihydro-2-iso-propyliminophenazine], the “deviation in MIC in culture medium containing 20% fecal extracts” value was “No significant deviation”.

From patent US9849130B2 (KamTek, Inc., priority 2014, dated 2017)
